Drawing on PMC10547799, this text covers binding for three substances.

Sequences of proteins named here, by UniProt entry; tags and fusion partners are left off.
UniProt Q93009: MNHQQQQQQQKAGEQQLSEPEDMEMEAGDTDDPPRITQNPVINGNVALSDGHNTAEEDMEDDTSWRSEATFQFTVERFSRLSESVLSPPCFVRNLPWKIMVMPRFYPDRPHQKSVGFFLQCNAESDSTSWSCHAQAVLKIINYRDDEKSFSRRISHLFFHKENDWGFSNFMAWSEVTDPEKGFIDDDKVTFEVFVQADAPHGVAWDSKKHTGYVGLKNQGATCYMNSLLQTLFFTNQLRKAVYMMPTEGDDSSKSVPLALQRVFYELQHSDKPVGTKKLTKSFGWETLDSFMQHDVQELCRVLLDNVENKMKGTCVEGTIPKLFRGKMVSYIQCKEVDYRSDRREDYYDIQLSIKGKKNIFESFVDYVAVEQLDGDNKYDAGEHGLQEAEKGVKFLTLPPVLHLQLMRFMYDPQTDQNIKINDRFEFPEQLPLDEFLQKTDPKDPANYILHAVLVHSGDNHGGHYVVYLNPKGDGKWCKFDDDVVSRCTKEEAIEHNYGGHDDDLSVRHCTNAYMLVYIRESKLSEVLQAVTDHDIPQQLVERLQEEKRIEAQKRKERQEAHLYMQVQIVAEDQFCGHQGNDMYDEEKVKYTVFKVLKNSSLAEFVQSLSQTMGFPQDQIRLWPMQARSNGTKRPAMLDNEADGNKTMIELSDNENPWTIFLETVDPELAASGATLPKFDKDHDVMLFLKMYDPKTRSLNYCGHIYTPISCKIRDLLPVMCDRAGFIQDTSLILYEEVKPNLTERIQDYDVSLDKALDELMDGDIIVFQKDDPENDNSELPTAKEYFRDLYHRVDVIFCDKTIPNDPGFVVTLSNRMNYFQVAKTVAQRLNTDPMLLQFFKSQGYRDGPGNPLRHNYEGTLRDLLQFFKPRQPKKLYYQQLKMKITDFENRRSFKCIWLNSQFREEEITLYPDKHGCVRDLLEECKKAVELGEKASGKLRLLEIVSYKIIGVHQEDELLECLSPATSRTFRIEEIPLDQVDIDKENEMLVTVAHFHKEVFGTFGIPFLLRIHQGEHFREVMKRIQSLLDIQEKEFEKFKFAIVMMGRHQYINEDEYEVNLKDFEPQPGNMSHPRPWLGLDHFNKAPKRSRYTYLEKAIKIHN

Numbering of substitutions follows the chain as printed. These are yes or no findings as the source states them, for the method shown. Binding seen in cells or lysates may run through a third protein. Some entries that bind do so weakly or less than the wild type. For some of these results: Tags and fused reporters may be left off the sequences shown.

One test has as its target T1, GST-UHRF1 (UniProt Q96T88).
T1 sequence: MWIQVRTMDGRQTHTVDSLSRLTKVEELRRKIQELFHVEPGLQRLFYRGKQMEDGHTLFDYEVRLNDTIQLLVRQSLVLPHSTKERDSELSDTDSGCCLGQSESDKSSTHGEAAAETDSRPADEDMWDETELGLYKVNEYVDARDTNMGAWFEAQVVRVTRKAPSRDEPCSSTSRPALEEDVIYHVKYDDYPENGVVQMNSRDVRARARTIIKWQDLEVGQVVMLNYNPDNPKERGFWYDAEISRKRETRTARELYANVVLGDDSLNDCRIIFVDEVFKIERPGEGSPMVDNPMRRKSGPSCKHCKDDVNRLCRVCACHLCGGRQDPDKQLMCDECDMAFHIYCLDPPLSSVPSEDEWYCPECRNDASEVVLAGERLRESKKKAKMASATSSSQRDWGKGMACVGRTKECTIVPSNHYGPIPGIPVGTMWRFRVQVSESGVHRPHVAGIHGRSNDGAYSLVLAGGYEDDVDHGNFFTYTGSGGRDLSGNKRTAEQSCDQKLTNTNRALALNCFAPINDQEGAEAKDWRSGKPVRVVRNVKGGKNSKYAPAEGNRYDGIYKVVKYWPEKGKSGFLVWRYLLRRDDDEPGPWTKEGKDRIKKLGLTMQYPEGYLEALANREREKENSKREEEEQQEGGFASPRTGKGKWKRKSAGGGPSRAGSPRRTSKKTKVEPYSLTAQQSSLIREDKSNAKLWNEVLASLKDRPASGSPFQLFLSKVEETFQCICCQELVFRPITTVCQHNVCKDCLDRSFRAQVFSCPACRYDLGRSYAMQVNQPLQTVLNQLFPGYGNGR
Nature of the test: pull-down; GST-UHRF1 proteins (wild type, truncations or mutants) immobilised on glutathione beads, incubated with DU145 cell lysates; western blot for PLK1 or USP7; only the target purified. Background: In western blotting, separated proteins are transferred to a membrane and probed.

Test [1] has as its target T2, UHRF1-His (UniProt Q96T88).
T2 sequence: T1 sequence
Nature of the test: co-IP; DU145 co-transfected with the indicated plasmids and PLK1 siRNAs for 72 h (PLK1 knocked down); IP anti-His, blot for USP7.

For the next test, the target named is T3, UHRF1(S265D)-His (UniProt Q96T88).
T3 sequence: T1 sequence with S265D
Nature of the test: co-IP; DU145 transfected with UHRF1-His wild type or S265 mutants for 72 h; IP anti-His, blot for USP7.

For test [2], the target named is T2, UHRF1-His. Described as above.
Test [3] deals with T2, UHRF1-His. As to the kind of experiment: co-IP; HEK293T co-transfected with UHRF1-His and Flag-tagged PLK1 (full length or truncated); IP with anti-Flag or anti-His; RIPA extracts, antibody 4 °C 12 h, protein A/G magnetic beads; western blot.
The target in test [4] is T4, UHRF1 (endogenous) (human (endogenous in DU145 and BT549)) (UniProt Q96T88).
T4 sequence: T1 sequence
As to the kind of experiment: co-IP; endogenous proteins, DU145 and BT549 lysates; IP with anti-PLK1 or anti-UHRF1; also DU145 synchronised at G1/S by double thymidine, released, or arrested in M phase with nocodazole (IP anti-UHRF1).

Test [5] addresses T5, GST-UHRF1 SRA domain-containing fragment 414-723aa (UniProt Q96T88).
T5 sequence: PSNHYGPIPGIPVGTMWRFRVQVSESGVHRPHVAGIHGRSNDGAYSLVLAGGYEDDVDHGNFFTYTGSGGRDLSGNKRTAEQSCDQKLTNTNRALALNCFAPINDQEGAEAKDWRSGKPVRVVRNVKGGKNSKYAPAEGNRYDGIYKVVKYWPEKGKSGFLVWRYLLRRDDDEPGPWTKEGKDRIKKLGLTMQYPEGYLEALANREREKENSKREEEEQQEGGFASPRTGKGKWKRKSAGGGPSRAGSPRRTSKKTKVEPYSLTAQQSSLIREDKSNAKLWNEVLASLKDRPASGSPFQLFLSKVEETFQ
Nature of the test: pull-down; GST-UHRF1 proteins (wild type, truncations or mutants) immobilised on glutathione beads, incubated with DU145 cell lysates; western blot for PLK1 or USP7; only the target purified.

Turning to “USP7 (endogenous) (from UniProt Q93009 1-1102) (enzyme)”, the binding entry is recorded as “binds” with GST-UHRF1, “no binding (condition: PLK1 knocked down with siRNA)” with UHRF1-His [1], “binds” with UHRF1(S265D)-His and “binds” in the test with UHRF1-His [2].
In the case of “PLK1-Flag (from UniProt P53350 1-603) (enzyme)”, in the test with UHRF1-His [3], the binding entry is “binds”.
Consider “PLK1 (endogenous) (from UniProt P53350 1-603) (enzyme)”, for which the binding entry in test [4] and in test [5] was “binds” in each case.
